In patent publication US20080261891A1, “COMPOSITIONS AND METHODS FOR USING SYRINGOPEPTIN 25A AND RHAMNOLIPIDS” (Utah State University, priority 2007, published 2008):

Test system: yeast: Brettonomyces bruxellensis, Candida vini, Pichia fermentans, Saccharomyces luduigi, Metschinikowia puicherrima, Kloeckera apiculata
Assay type: cell-based
Conditions: any strain of yeast tested; data not shown

C/C=C(\NC(=O)C(C)NC(=O)C(C)NC(=O)C(CC(C)C)NC(=O)C(NC(=O)C(C)NC(=O)C(C)NC(=O)C(NC(=O)C1CCCN1C(=O)/C(=C/C)NC(=O)CC(O)CCCCCCC)C(C)C)C(C)C)C(=O)NC(C(=O)N/C(=C\C)C(=O)NC(C)C(=O)NC(C(=O)NC(C)C(=O)NC(C)C(=O)N/C(=C\C)C(=O)NC1C(=O)NC(CO)C(=O)NC(C)C(=O)NC(C(C)C)C(=O)NC(C)C(=O)NC(CCN)C(=O)NC(CCN)C(=O)NC(Cc2ccc(O)cc2)C(=O)OC1C)C(C)C)C(C)C (stereo not shown) [SP 25A, syringopeptin 25A] ({Decanoyl(3ξ-OH)}-[Dhb]PVAAVLAA[Dhb]V[Dhb]AVAA[Dhb]TSAVA[Dab][Dab]Y; ester 18-C; configuration not given here)
growth inhibition of yeast: did not inhibit the growth

Where a SMILES comes first, the peptide text is derived from it. Bridges are numbered along the chain shown (N, C = ends). [ ]: non-standard residue; d: D form. The star is where a group is joined. ξ: configuration not given here. Decanoyl(3ξ-OH) = CCCCCCCC(O)CC(=O)*; Dab = NCC[CH](N)C(=O)O; Dhb = C/C=C(\N)C(=O)O
